Experimental data taken from the supplement of paper PMC3334620.
Over roughly 33,000 sequences, “E-score (-0.5 to 0.5)” has its median near -0.043; the highest 2% begin near 0.37. This is one part of the list.

These sequences were tested against T1, Upc2 (UniProt Q12151) (assay: PBM E-score (8-mer binding enrichment) (E-score (-0.5 to 0.5)); higher = stronger / more preferred TF binding; most listed sequences are background and not binding sites). Conditions: protein concentration: 200 nM; construct: GST-full length.
T1 sequence: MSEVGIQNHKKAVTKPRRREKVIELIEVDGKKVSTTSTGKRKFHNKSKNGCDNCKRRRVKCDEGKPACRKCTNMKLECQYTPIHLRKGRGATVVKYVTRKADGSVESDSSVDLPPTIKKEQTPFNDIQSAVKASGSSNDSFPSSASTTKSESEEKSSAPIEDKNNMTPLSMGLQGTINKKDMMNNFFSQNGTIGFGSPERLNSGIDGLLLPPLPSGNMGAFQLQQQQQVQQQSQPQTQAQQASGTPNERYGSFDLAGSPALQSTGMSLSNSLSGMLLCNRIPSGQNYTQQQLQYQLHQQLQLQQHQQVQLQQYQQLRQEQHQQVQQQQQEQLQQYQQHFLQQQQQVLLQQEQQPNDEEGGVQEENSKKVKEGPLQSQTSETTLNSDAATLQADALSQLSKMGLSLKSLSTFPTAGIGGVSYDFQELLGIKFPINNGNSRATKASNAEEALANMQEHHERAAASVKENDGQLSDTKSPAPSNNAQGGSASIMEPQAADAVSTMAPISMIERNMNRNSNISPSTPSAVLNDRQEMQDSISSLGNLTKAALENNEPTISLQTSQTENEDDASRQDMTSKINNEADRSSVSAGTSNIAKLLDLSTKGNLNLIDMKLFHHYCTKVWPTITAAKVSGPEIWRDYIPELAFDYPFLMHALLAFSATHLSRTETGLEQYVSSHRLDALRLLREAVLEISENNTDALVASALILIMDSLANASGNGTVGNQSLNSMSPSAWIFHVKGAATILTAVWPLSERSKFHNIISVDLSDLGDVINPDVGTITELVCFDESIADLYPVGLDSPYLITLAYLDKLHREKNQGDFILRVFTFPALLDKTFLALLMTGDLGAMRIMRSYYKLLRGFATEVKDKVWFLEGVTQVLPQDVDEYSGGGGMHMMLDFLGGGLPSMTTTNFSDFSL
Summary of the method: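 Detection of bound protein used fluorescent anti-GST, with scans normalised by masliner. The proteins were GST-tagged yeast transcription factors applied at about 100-200 nM to universal all-10-mer Agilent arrays made double-stranded by primer extension. Each ungapped eight-base word, pooled with its reverse complement, was scored with an E-score from the Universal PBM Analysis Suite.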

Sequence | PBM E-score
GAGTAGGA | -0.198
CAACTAGA | -0.153
AAGATATC | -0.102
CTATTTGC | -0.106
TCGATTAA | 0.305
AGTGCGCC | -0.168
CGGCTATA | 0.0456
AACCCCTT | -0.16
CTCCAAAA | -0.183
CAAGCACC | -0.172
CTTACCTA | -0.0428
GACTCGAC | 0.0265
GCCGAGAA | 0.068
AGTTTCTA | -0.00903
CTTTCAGC | -0.123
GGTCTAAC | -0.129
ACCACACG | 0.104
GCCTGGTA | -0.0182
CATGGAGG | -0.288
CTAGCGCC | -0.168
AACCAACT | 0.009
GTAGAGAC | -0.0871
AAGTGTGC | -0.127
CACTACCA | 0.0739
GCTGTTAC | -0.0869

Sequence | PBM E-score
ACGCATCC | 0.207
CCTTTTGA | 0.0176
CAGCGTGG | -0.162
ATTTGGTC | 0.0639
ACATAACC | -0.0515
ATACTGCG | 0.162
AGTCACAA | -0.00025
CATGGTCC | -0.175
CCCGACAC | -0.193
CAAGTTGG | -0.108
ATCCCATA | -0.123
AAGCGCGG | -0.151
ATGAGGAA | -0.0947
CCAAGCGA | 0.243
CATGCGGC | -0.23
ATAGCAAA | -0.0399
GTATGAGA | 0.126
GCAAGCCC | -0.109
CATCCTGC | -0.201
GCGATTAC | 0.0838
GACCGCGA | 0.0859
CCACTCAC | -0.0969
CCTTAATA | -0.239
GATGCATA | 0.0988
ACTGGTGA | -0.187

Sequence | PBM E-score
CCCCCCCA | -0.309
CACTCTCC | -0.196
CAAGATAG | -0.0974
GGTACAGA | -0.0181
CGGAAAAG | 0.113
AACCAGCA | -0.249
CTAGAGCC | -0.322
CCACAACC | 0.0353
AAGAGAGT | -0.0851
GCGTGAGA | -0.00735
ATTTTTGC | 0.0991
AACCTTTC | -0.0976
ATTGTCGG | 0.0788
GCGAGACC | 0.0589
ACTTGTTC | 0.0821
GCTGACCA | -0.158
GAAGAACC | 0.0139
AATGAATT | 0.00723
AGCACGAG | 0.108
GGTATCAA | -0.153
CGAGAACG | 0.276
AGGGATCC | -0.123
ATGTCGCG | 0.168
CCTCCCGC | -0.133
ACAGGACC | -0.213

Sequence | PBM E-score
CACGCAGA | 0.044
TATGGGAA | -0.0725
AAAAACGA | 0.288
ACTACAAC | 0.0818
TCTCCGCA | -0.185
CACATGGG | -0.351
AGCATCCC | -0.316
AGACCGAT | -0.158
GTTGGGGA | -0.0796
AGTGGGTA | -0.0804
CAGGTACC | -0.112
AGTCTGCG | -0.195
GAAGCGTC | -0.0104
GAACGGGC | 0.291
CCTCCTCG | 0.144
AGACGCCA | -0.153
GCGATCCA | 0.179
TACCTTCA | 0.0337
CCAGCCAG | -0.29
AGATATTA | 0.166
CATGATCA | -0.0393
TAAGAGTA | 0.126
CTGCATTA | -0.0709
CCAGAGGC | -0.0662
GGACTGGA | -0.318

Sequence | PBM E-score
AGGCTATA | -0.143
ACCTGGGG | -0.164
CCGCTTAA | 0.268
CGACGCCC | 0.107
CATCAGCC | -0.104
GATCAAGA | -0.0833
AATGAAAC | 0.029
AACGCGGG | 0.177
CACCGAGG | -0.114
AAACTCGG | 0.0489
ACCTCCTG | -0.194
ACCCTGGG | 0.00937
TGTCGACA | 0.063
AGGTGAAG | -0.14
GTACATAA | 0.112
GCCGCCCC | -0.151
ATCGGCAA | -0.093
ACTGCAGC | -0.0726
ACCGCCAC | -0.0746
AAGGAATT | -0.215
AAAGAGTC | -0.0926
AAGTGTCT | -0.111
ATTTACAG | -0.0746
ACAGATTC | -0.00745
GCACCGCA | 0.0467

Sequence | PBM E-score
AGAGTCCC | -0.0876
ATGTGCAC | -0.159
AAGCAGCT | -0.103
CTGCTGCC | -0.183
GGTAGACA | -0.277
ATCTCTTA | 0.24
AACCGTGG | -0.167
ACCCAGTA | -0.0194
CCGCGCGC | -0.0182
AATAGAGA | -0.0424
GCATAGAA | -0.144
CAAGCGAG | 0.279
CATCCCCA | -0.284
ACGAACGG | 0.387
GTGGAGTA | -0.0688
ACGTCTCG | 0.275
CATTAATA | -0.0771
ATGGGAGC | -0.0499
TAGCCATA | 0.175
ACGCTAGC | -0.0654
CAACTGGA | -0.191
GATGCGCC | -0.102
AAGAATTG | 0.17
TGAGCCAA | -0.128
GACACACC | 0.0498

Sequence | PBM E-score
CTATGCAC | -0.119
AGAATTAC | 0.143
GCTAGAAA | -0.0296
CTCACACA | 0.0516
GAATGTCA | -0.238
CCAGACCA | -0.149
CAACCATC | -0.0278
GGTTCGAC | -0.0159
ACTACGCA | -0.194
CAGAGAGC | -0.203
AACGGGCC | 0.202
TGACACAA | -0.191
AATGTGTC | -0.171
CCATCCCA | -0.157
CGTTCTCA | 0.247
CCCTTAGA | -0.12
ACAAATTA | -0.02
ATGGGTCA | -0.0862
AGTGCATA | 0.0404
ATCTCCCC | -0.185
TAAGTCCA | -0.0672
ACACAAGT | 0.0927
ATTCTCTA | 0.0201
CCAGATGC | -0.206
GACGCCCC | -0.0985

Sequence | PBM E-score
TCCTCCGA | -0.108
ATATCAGA | 0.0389
GTAGATAA | 0.144
CGTGTTTC | -0.171
TCGCCGAA | 0.0671
ATAACCAG | 0.0648
ATCGCCAG | -0.132
AAGCGTAG | 0.0667
AATGAGAT | -0.058
CCAAAGAC | -0.245
AGCGATCC | 0.124
GCTCTGGA | 0.039
AGCTCCCT | -0.107
CAGGCATG | -0.279
AACGATGT | 0.388
CAGCGACG | -0.208
GCTAGACC | -0.207
CATAGAAA | 0.00027
GTTACGTA | 0.202
ATGCAGGA | -0.171
CTTAAGTA | -0.023
CCAATTCA | -0.0667
GGTAAATA | -0.0795
ACGGAGGG | 0.217
CCTGTACA | -0.0382

Sequence | PBM E-score
AGTTACCA | -0.0135
AGCATGGC | -0.181
CATGTGCA | -0.19
CGCAAGAC | -0.0394
GCGGGATA | 0.0406
AGGAGACG | 0.0203
CCACACAG | -0.203
ATACATAA | -0.0411
GCCATATA | 0.191
TACGACCA | 0.45
AGAGCACA | -0.103
ACCTATAT | 0.106
CCGGTAGA | -0.118
AATCGCTC | 0.073
AAGTTATG | -0.0806
ATCTACGA | 0.313
GAAGTATC | -0.0621
ACTGGGAA | -0.161
ACGTGAGT | -0.103
